In the supplement of paper PMC3334620:
The full ranking holds about 33,000 sequences; the median of “E-score (-0.5 to 0.5)” is about -0.032, and the highest 2% start at about 0.36. Some of the results follow.

target: T1, Sko1 (UniProt Q02100); experiment: PBM E-score (8-mer binding enrichment) (E-score (-0.5 to 0.5)); higher = stronger / more preferred TF binding; most listed sequences are background and not binding sites; details: protein concentration: 200 nM; construct: GST-full length
T1 sequence: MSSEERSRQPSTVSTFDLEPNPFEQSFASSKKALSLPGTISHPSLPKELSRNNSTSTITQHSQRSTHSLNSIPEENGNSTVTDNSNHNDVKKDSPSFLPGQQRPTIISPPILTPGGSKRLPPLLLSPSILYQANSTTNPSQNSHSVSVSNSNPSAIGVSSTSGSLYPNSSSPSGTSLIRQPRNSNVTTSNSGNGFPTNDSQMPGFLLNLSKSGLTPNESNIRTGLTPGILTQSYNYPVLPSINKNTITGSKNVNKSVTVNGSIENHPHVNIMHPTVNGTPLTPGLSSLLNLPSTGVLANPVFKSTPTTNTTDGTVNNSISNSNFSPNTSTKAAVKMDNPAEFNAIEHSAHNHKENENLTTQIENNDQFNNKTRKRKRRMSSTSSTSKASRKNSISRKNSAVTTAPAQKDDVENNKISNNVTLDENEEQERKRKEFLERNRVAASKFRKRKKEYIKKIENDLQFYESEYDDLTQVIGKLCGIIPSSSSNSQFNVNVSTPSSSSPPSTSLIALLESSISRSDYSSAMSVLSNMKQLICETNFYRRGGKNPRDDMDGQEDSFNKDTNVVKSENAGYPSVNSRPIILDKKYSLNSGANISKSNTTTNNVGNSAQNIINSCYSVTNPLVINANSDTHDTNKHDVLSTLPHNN
Description: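 Universal 'all 10-mer' protein binding microarrays (Agilent AMADID 015681) probed with GST-tagged S. cerevisiae TFs (full-length or DBD) made by in vitro transcription/translation (PURExpress), about 100-200 nM. Bound TF was detected with fluorescent anti-GST. Each ungapped 8-mer (which stands for itself and its reverse complement) is scored by the PBM enrichment score (E-score), a modified Wilcoxon-Mann-Whitney statistic from -0.5 to +0.5, computed with the Universal PBM Analysis Suite. Scale: above 0.35 generally sequence-specific binding.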

| Sequence | PBM E-score |
| --- | --- |
| AGGCCGTC | -0.178 |
| ATATTAAG | 0.189 |
| GCAACGCC | -0.0627 |
| AAATGACC | 0.0951 |
| AAAACTTT | -0.00891 |
| AACGGCCA | -0.166 |
| CACTGGTC | -0.159 |
| CGGTTACC | -0.221 |
| GCGTCAAA | 0.274 |
| ACACGCGT | 0.275 |
| AGTTGCTC | -0.144 |
| CGAAACGC | -0.0498 |
| GAATGCCA | -0.114 |
| AGTAGCGG | -0.127 |
| ATCCTTTC | 0.0248 |
| GGCCTAAA | -0.155 |
| ACCAGTGG | -0.0428 |
| ACAGACAG | -0.0629 |
| GACGTCGA | 0.364 |
| ACTGTCGA | -0.0921 |
| GGCGGGGA | -0.0687 |
| CCGATCTA | -0.121 |
| ACAGTGGT | -0.128 |
| AACAGTGT | 0.0669 |
| AGCCACAT | 0.169 |

| Sequence | PBM E-score |
| --- | --- |
| CGCGACAA | 0.158 |
| CCCATTTA | -0.0301 |
| CACAAGCC | -0.0983 |
| CGACGATC | 0.0457 |
| ACGTCACT | 0.489 |
| CTCACTTC | -0.201 |
| GATTTGGC | -0.137 |
| AGCATAGA | -0.0737 |
| ATGCCCGA | -0.109 |
| TAATATTA | 0.362 |
| CCTCTCGC | -0.271 |
| ATCGCAAT | 0.0775 |
| CGGCGCAA | -0.0689 |
| CCACATAA | 0.154 |
| CTTCTTTC | -0.165 |
| GCGCGAGA | -0.0329 |
| CGTCAAGA | 0.325 |
| TAGACCTA | -0.00634 |
| GCTTAAGC | 0.124 |
| CTCGGATA | -0.0118 |
| CGTAAACC | 0.292 |
| ATGGGGTC | -0.181 |
| TGAGGTAA | 0.324 |
| AAAGGAGG | -0.23 |
| CAATAATC | 0.0749 |

| Sequence | PBM E-score |
| --- | --- |
| CGAGGGCC | -0.264 |
| ATGATCAT | 0.201 |
| GATACACC | 0.192 |
| AGGCCGGA | -0.308 |
| CATAGACG | 0.167 |
| ACGAACGT | 0.245 |
| GAAGTCTC | -0.0994 |
| CGGAAACA | -0.0815 |
| CATGTTAA | 0.117 |
| ATCCCGAG | 0.0113 |
| ATTAGGCC | -0.0836 |
| GAGGAATA | 0.0676 |
| AATCATCG | 0.0491 |
| GGGCGACA | -0.235 |
| GCCGCGAC | -0.177 |
| TAGAATGA | 0.172 |
| ACTTTTTG | 0.0874 |
| GTACTACA | 0.188 |
| ACCAGTCC | -0.42 |
| AGCTACTA | 0.0216 |
| CACTTGAC | 0.186 |
| GACTTATC | -0.156 |
| CGGTCCAC | -0.32 |
| GGGCACGA | -0.186 |
| AAGAGCCG | -0.304 |

| Sequence | PBM E-score |
| --- | --- |
| GCCCCGGC | -0.424 |
| AGAGACGC | -0.126 |
| CGGTTGAA | -0.0841 |
| GCTATGCA | 0.0613 |
| AGTGGAGG | -0.217 |
| ATCGGAGG | -0.185 |
| ACATGCGG | 0.0654 |
| ATTCTCAC | 0.0465 |
| GTACAGGA | 0.0369 |
| ACGCCGTG | -0.0333 |
| ACTGTAAT | 0.104 |
| ATCTACTC | 0.00745 |
| CTAGAGCA | -0.171 |
| AGATATGG | -0.016 |
| CCTGTAAA | -0.207 |
| CCCTGAAA | 0.0337 |
| AAAGCCAA | -0.113 |
| AGTTTCCC | -0.197 |
| CCACGAGC | -0.212 |
| ACTTTTAA | 0.115 |
| CGCGAAGA | 0.00689 |
| GATCGGGC | -0.176 |
| ACCGCGCT | -0.174 |
| ACTGCGGA | -0.0678 |
| CCGACTGC | -0.235 |

| Sequence | PBM E-score |
| --- | --- |
| ACTCAGCT | -0.174 |
| ATCTGCAA | -0.0812 |
| AGGAACGA | -0.0982 |
| ACTCTCGC | -0.184 |
| CAGACTTC | -0.193 |
| AGCACGCC | -0.134 |
| AGGAGGTA | -0.144 |
| GCAGACAA | -0.141 |
| ATTTTAGA | -0.0457 |
| GGTCCAAA | -0.101 |
| AGACCCAC | -0.0858 |
| ATGGGTTA | 0.0849 |
| GGCCCGAA | -0.263 |
| AGAGAGAT | 0.0264 |
| CCGCTTCA | -0.236 |
| ATGTACAT | 0.32 |
| AGCCGTCA | 0.0793 |
| CGTACCAG | 0.0706 |
| TTGGACAA | -0.0461 |
| AACCATGG | -0.0761 |
| AGCCACGG | -0.346 |
| ATGGTAAT | 0.242 |
| AGATCGTA | 0.0575 |
| CAGTGCAG | -0.254 |
| ACGCACGC | 0.316 |

| Sequence | PBM E-score |
| --- | --- |
| CGTAGCCA | 0.15 |
| CTAGGTGA | -0.125 |
| GCGCTTGA | -0.0697 |
| ACTGAAGG | -0.0475 |
| AAACCTGA | 0.0301 |
| ATATTACA | 0.175 |
| AGTCTAGC | -0.282 |
| GACATCCC | 0.0135 |
| AATATAAA | 0.269 |
| GAATCGTC | 0.122 |
| CTTGGTAA | 0.0209 |
| CGGTTGGC | -0.0926 |
| GGCAGAAC | -0.0991 |
| ATTCGAGG | -0.111 |
| CTCAACAA | 0.23 |
| ATCTTTGG | -0.00869 |
| GATCCTAA | -0.06 |
| CCAGAGGG | -0.212 |
| AAGTATTA | 0.131 |
| GACCAAAC | -0.0367 |
| TAGTCCGA | -0.165 |
| GCTCAGCA | 0.0286 |
| ACACCCGC | -0.117 |
| ACCCCTAC | -0.0736 |
| AATAGGTG | -0.0428 |

| Sequence | PBM E-score |
| --- | --- |
| CTTACACC | -0.25 |
| AGCCCTAT | -0.331 |
| AAAAACAT | 0.145 |
| CTTGGACA | -0.0636 |
| CGTAGAAA | 0.282 |
| GAAACTTA | 0.262 |
| TGAACCCA | -0.0415 |
| CAGTCGCC | -0.132 |
| AGTTTTTA | 0.225 |
| AGGAAGCA | -0.186 |
| AGATTCAT | -0.109 |
| CAAGTGGA | -0.21 |
| CCTGAGGA | -0.147 |
| AGCCGGAT | -0.296 |
| AATCTGGT | -0.147 |
| CACAACAA | 0.0758 |
| CGTACTAC | 0.228 |
| AAACTTTA | 0.16 |
| ATAGGCTG | -0.0621 |
| AGTCAGGG | -0.256 |
| AGCCTTGC | -0.324 |
| ACTATGTC | 0.2 |
